Assay results: PMC4336329 (PLoS ONE, 2015)
The campaign covered roughly 310,000 compounds. About 2,200 (0.71%) showed an effect of 50% or more. Effects have a minus sign here. Some of the results follow.

Target: human ether-à-go-go-related gene (hERG) potassium channel (human, UniProt Q12809)
Assay: primary screen, population patch clamp on CHO cells stably expressing hERG

Chain of human ether-à-go-go-related gene (hERG) potassium channel (Q12809 whole entry, looked up): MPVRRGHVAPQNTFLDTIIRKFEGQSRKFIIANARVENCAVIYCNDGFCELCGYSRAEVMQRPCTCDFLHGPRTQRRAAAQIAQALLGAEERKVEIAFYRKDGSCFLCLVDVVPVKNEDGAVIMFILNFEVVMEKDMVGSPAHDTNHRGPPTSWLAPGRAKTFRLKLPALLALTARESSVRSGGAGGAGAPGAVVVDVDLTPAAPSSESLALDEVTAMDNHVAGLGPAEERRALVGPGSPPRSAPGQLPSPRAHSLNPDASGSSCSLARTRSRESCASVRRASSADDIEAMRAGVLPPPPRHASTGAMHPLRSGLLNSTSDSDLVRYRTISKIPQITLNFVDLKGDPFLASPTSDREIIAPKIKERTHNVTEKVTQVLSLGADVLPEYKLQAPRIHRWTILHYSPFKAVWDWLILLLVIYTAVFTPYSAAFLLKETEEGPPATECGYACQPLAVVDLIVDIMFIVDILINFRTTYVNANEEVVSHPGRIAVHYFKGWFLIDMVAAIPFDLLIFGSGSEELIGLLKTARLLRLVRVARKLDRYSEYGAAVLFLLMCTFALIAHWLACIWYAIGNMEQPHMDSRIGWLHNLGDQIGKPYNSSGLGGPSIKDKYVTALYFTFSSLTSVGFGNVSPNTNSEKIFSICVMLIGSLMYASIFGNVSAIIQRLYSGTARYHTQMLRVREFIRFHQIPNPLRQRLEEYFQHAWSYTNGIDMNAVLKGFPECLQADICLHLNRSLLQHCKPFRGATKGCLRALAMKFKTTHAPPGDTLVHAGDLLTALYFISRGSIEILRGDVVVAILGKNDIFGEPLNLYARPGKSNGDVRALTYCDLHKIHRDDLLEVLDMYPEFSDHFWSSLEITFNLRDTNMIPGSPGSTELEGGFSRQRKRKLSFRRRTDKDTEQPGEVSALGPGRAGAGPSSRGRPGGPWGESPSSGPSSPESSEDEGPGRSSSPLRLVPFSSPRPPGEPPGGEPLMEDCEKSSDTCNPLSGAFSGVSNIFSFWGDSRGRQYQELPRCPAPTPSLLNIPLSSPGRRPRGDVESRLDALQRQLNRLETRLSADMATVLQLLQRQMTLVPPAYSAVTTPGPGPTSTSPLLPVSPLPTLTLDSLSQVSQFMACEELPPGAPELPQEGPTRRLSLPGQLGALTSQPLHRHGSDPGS

Row | Structure (SMILES) | hERG current change (%, negative = inhibition) at 1uM [%]
1 | c1ccc(COC2CCCN(Cc3nc(-c4cnccn4)no3)C2)cc1 (centres unmarked) | 4.33
2 | CCN(CC)S(=O)(=O)c1cccc(C(=O)N/N=C(\C)c2ccc(O)cc2O)c1 | 11
3 | OCC1CCCN(c2ncnc3scc(-c4ccccc4)c23)C1 (centres unmarked) | 6.05
4 | O=C(O)C1CCCCC1C(=O)Nc1ccc(S(=O)(=O)N2CCCCCC2)cc1 (centres unmarked) | 14.4
5 | Cc1occc1C(=O)N1N=C(C2CC2)CC1(O)C(F)(F)F (centres unmarked) | 11.9
6 | CCCn1c(N2CCN(C(=O)Nc3ccccc3)CC2)nc2ccccc21 | -5.1
7 | COCCn1c(SCC(=O)N2CCN(c3ccccc3)CC2)nc2c(c1=O)SC(C)C2 (centres unmarked) | -35.8
8 | NC(=O)COC(=O)c1ccccc1SCC(=O)NC1CCCCCCC1 | 15.9
9 | O=C(O)CCCCCCCCCCCc1ccccc1 | 12.7
10 | Cn1c(N)c(S(=O)(=O)NCc2ccc(F)cc2)c(=O)n(C)c1=O | 6.63
11 | CSc1nsc(SCC(=O)Nc2nncs2)n1 | 22.7
12 | CCC(=O)N1CCc2cc(Br)cc(S(=O)(=O)NCc3ccccc3OC)c21 | 9.25
13 | O=C(O)CSCCn1cccn1 | -3.17
14 | CCn1c(=O)c(C)nn2c3ccccc3nc12 | -0.602
15 | O=C(NCc1ccco1)c1cccc(S(=O)(=O)N2CCCCC2)c1 | -3.52
16 | COc1ccccc1CCC(=O)Nc1ncc(C)s1 | 13.5
17 | O=C1Nc2ccccc2C12NCCc1c2[nH]c2ccccc12 (centres unmarked) | 7.94
18 | O=[N+]([O-])c1ccc(NC(=S)NCc2ccc(F)cc2)cc1 | 9.98
19 | COc1ccc(S(=O)(=O)N2CCN(C(c3ccccc3)c3ccccc3)CC2)cc1NC(C)=O | 17.6
20 | CCn1c(=S)sc2c(=O)[nH]c(SCC(=O)Nc3cc(OC)ccc3OC)nc21 | 9.89
21 | O=C(O)COc1ccc(/C=N/NC(=O)Cc2ccc(Cl)cc2)cc1 | 8.94
22 | CCOC(=O)C1CCN(c2ncnc3c2oc2ccccc23)CC1 | 6.71
23 | Cc1ccc(NC(=O)C2CCN(C(=O)c3ccco3)CC2)cc1C | 9.85
24 | COC(=O)c1ccc(OCC(O)CN(CCO)CC(O)Cn2ccc3ccccc32)cc1 (centres unmarked) | 10.6
25 | O=C(O)CSc1c2c(nc3cc(C(=O)Nc4cccc(C(F)(F)F)c4)ccc13)CCC2 | 10.4
26 | COC(=O)c1sc2ccccc2c1-n1cccc1C(=O)C(=O)Nc1ccc(C)cc1 | -2.29
